# Measured values as given in the supplement of paper PMC10338343.
# ± gives the standard deviation. This is a selection; strong and weak results do not stand in their true shares.
# Test system: MIWI (PIWIL1) piRISC loaded with piRNA #1 (30 nt)
# Assay: pre-steady-state target cleavage rate (min^-1); MIWI and MILI are mouse PIWI proteins and EfPiwi is from a freshwater sponge; tags in brackets are library labels; higher = faster piRNA-guided slicing of the target
# Settings: guide: piRNA #1 5'p-UGAGGUAGUAGGUUGUAUAGUAUCCAGAGG; auxiliary factor: 500 nM mouse GTSF1
# Method in brief: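 A transcribed, DNA-blocked target RNA library […] was incubated at 33 °C for 0–8 or 0–960 min with 1 nM active affinity-purified piRISC carrying one synthetic guide, in HEPES–potassium acetate buffer with or without 500 nM GTSF1 partner protein. Uncleaved targets were then sequenced and normalised to depth and to weakly complementary targets. Data from three trials were pooled, with k3 capped at 0.0001 min^-1, and a burst-and-steady-state fit yielded the pre-steady-state cleavage rate.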
# 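Also: 1 nM active piRISC with 0.1 nM target library at 33 °C single turnover.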
row,Sequence,pre-steady-state target cleavage rate
1,GGACUGGAUACUAUACAACGUACUACGUCA,0.397 ± 0.065
2,GGAGAGGAUACUAUACAACCUACUACCUA,0.537 ± 0.044
3,GGAGACCUAACUAUAGCAACCUACUACCUCA,0.00843 ± 0.0038
4,GCACUGGAUACUAUACAACCUACUACCACA,0.895 ± 0.061
5,GGACAGGAAACUAUACAACCUACUACCUCA,1.69 ± 0.096
6,GGAGACGAUACUAUACAAGCUUCUACCUCA,0.175 ± 0.015
7,GGAGUGGAUACUAUACUACCAACUACCUCA,0.0269 ± 0.005
8,GGAGACCUAUGAUAUGUUCCUACUACCUCA [g2:g12:cont:t1A],< 0.0001
9,GGAGACCUUACUUUACAACCUACAACCUCA,0.229 ± 0.029
10,CCUCUGGAUACUUAUACAACCUACUACCUCA,1.7 ± 0.097
11,GGAGACCUAUGAUAUGUUGGUACUACCUCG [g2:g10:cont:t1G],< 0.0001
12,GGACUGGAUACUAUACAACCAACUACGUCA,0.0713 ± 0.0092
13,CGUCUGGAUACUAAACAACCUACUACCUCA,1.82 ± 0.11
14,GGAGACCUAACUAUACAACCUACUCACCUCA,0.664 ± 0.058
15,GGAGAGGAUUCUAUACAACCUUCUACCUCA,0.578 ± 0.03
16,GGAGACCUUACUCAUACAACCUACUACCUCA,0.437 ± 0.049
17,GGAGACCUUACUAUACAACGUAGUACCUCA,0.0931 ± 0.021
18,CCUCUGGAUACUAUACAACGCUACUACCUCA,0.00785 ± 0.0037
19,CCUGUCGAUACUAUACAACCUACUACCUCA,1.57 ± 0.11
20,GGACUGGAUUCUAUACUACCUACUACCUCA,1.14 ± 0.12

row,Sequence,pre-steady-state target cleavage rate
1,CCUCUGGAUACUAUACAAGCUACUAGCUCA,0.751 ± 0.081
2,GGAGACCUAUCUAUACAACCUACUACUCUCA,0.723 ± 0.056
3,GGAGUGGAUACUAUACAACCUACUACCUGA,0.453 ± 0.075
4,GGAGAGGUUACUAUUCAACCUACUACCUCA,1.21 ± 0.057
5,GGAGACGAUACUAUUCUACCUACUACCUCA,0.89 ± 0.079
6,GGAGACGAUACUAUACAUCCUACUACCUCA,1.41 ± 0.088
7,GGAGACCAUACAAUACAACCUACUACCACA,0.654 ± 0.1
8,GGAGACCUAUCUAUACAACCUACUACCGUCA,0.739 ± 0.071
9,GGAGACGAAACUAUACAACCUACUACCUCA,1.46 ± 0.12
10,GGAGACCUUACUAUUACAACCUACUACCUCA,0.712 ± 0.075
11,GGAGUGGAUACUAUACAACCUUCUUCCUCA,0.0055 ± 0.002
12,GGUCUGGAUACUAUACAACCUUCUAGCUCA,0.00513 ± 0.0025
13,GCUCAGGAUACUAUACAACCUACUUCCUCA,0.776 ± 0.048
14,GCUGUGGAUACUAUACAACCUACUUCCUCA,0.00591 ± 0.0023
15,GCUCUGGAUACUUUACAACGUACUACCUCA,1.1 ± 0.072
16,GGAGACCUAUCUUUAGAACCUACUACCUCA,0.0114 ± 0.0032
17,CCUCUGGAUACAAUACAACCUACUACCUCA,1.92 ± 0.12
18,GGAGACCUUACUAUACAACGUACUACCUCA,0.606 ± 0.037
19,GGAGAGGUUACUAUACAAGCUACUACCUCA,0.175 ± 0.023
20,GGAGUGGAUACUAUACAACCUAGAACCUCA,0.0628 ± 0.014
